Source: PMC12040169 (PLOS Biology, 2025)
The other results are listed elsewhere or left out.

Each compound was assayed on T1, C. trachomatis L2/434/Bu expressing GFP (CTL2-GFP). Conditions: total inclusion area; 28.5 h, 10 µM; inhibitor.
T1 construct: L2/434/Bu GFP intracellular growth in HeLa cells
Set-up: species or system HeLa; C. trachomatis total inclusion area by high-content imaging, normalised to DMSO
In short: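 High-content imaging followed the bulk GFP/resorufin measurement: fixed, Hoechst-stained cells were scored for GFP inclusions and host nuclei per well. Total inclusion area and count served as growth proxies, nuclei number as the viability proxy. MIC calculation matched the bulk assay.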

Row | SMILES | % of control remaining
1 | FC(F)(F)CCN1CCC2(CC1)NCCc1c2[nH]c2ccc(Cl)cc12 [CBK039331] | 33.8496
2 | COc1ccccc1NCc1c(O)c(Br)cc2oc3c(c12)CCCC3 [CBK160398] | 29.5394
3 | Sc1nnc(COc2ccccc2)n1/N=C/c1cccnc1 [CBK265308] | 102.608
4 | OCCN1CCN(C(c2cccs2)c2ccc3cccnc3c2O)CC1 (stereo not drawn) [CBK296964] | 43.1997
5 | CC(C)N1CCC2(C/C=C/CNC(=O)c3ccccc3OCCNC2=O)CC1 [CBK292094] | 124.206
6 | CN1C(=O)c2ccccc2C(=O)[C@@]2(C)CN(C(=O)C3CCCC3)C[C@@H]12 [CBK284570] | 105.164
7 | O=C(O)CCc1nc(-c2ccc3[nH]ccc3c2)no1 [CBK287070] | 101.99
8 | CCOC(=O)c1c(NC(=O)C2CCCCC2C(=O)O)sc(C)c1C (stereo not drawn) [CBK265469] | 94.5233
9 | Cc1ccc(CN(Cc2nccn2C)C2CC(C)(C)NC(C)(C)C2)o1 [CBK283190] | 50.6603
10 | O=C(O)C1C2CCC(O2)C1C(=O)Nc1cnn(Cc2ccccc2)c1 (stereo not drawn) [CBK286849] | 110.625
11 | Cc1c(C(=O)N2CCN(C3CC3)CC2)nnn1Cc1ccc(F)cc1F [CBK305507] | 40.0143
12 | O=C(Nc1cc2cccnc2nc1Cl)c1ccc(C(F)(F)F)cc1[N+](=O)[O-] [CBK091348] | 87.888
13 | CC(C)(C)c1ccc(-c2cnc(N)c(-c3ccc(C(=O)N4CCOCC4)cc3)n2)cc1 [CBK084543A] | 60.4045
14 | CCNc1nc(Sc2ccc(Cl)cc2)cc(C(F)(F)F)n1 [CBK003349] | 75.3528
15 | COc1ccc(C2CCCC(N(CCN(C)C)C(=O)Nc3ccc(F)c(F)c3)C2)cc1OC (stereo not drawn) [CBK059339C] | 58.9491
16 | COC(=O)c1ccc2c(=O)n(CC3CCCO3)c(SC)nc2c1 (stereo not drawn) [CBK304535] | 82.3189
17 | O=C1N=C(NC2CCCCCC2)S[C@@H]1CC1CCCCC1 [CBK070723] | 72.5867
18 | O=C(O)C1CCCN1S(=O)(=O)c1ccc2[nH]c(=O)c(=O)[nH]c2c1 (stereo not drawn) [CBK266971] | 111.302
19 | O=C(c1c(F)cccc1F)N1CCN(c2ncccn2)CC1 [CBK144517] | 77.2991
20 | Cn1c(/C=C/C=C/CN2CCN(Cc3ccccc3)CC2)nc2ccc([N+](=O)[O-])cc21 [CBK268281] | 95.5572
21 | CCCNc1nccnc1-c1cccc(Cl)c1Cl [CBK088892] | 138.495
22 | Cc1ccc2nc(N3CCCC(O)C3)c(CN3CCN(C)CC3)cc2c1 (stereo not drawn) [CBK307710] | 73.6616
23 | COc1ccc(C(=O)Nc2cc(C)nn2-c2nc3ccccc3s2)cc1 [CBK287841] | 86.5549
24 | COc1ccc(-n2c(SCc3nc4ccccc4[nH]3)nc3sc4c(c3c2=O)CCCC4)cc1 [CBK267558] | 106.956
25 | Cc1ccc(C(=O)C(NC(=O)c2ccco2)Nc2cccc3ccccc23)cc1 (stereo not drawn) [CBK263856] | 69.9663
26 | Cc1sc2nc(C)n(C3CCN(C(=O)C(C)C)CC3)c(=O)c2c1C [CBK282414] | 108.809

Row | SMILES | % of control remaining
27 | COc1ccccc1-c1nn2c(Cn3nnc4ccccc43)nnc2s1 [CBK268373] | 106.862
28 | CC(=O)Nc1ccc(CC(C(=O)O)c2ccccc2)cc1 (stereo not drawn) [CBK286600] | 68.788
29 | Cc1nc([N+](=O)[O-])c(N2CCN(C)CC2)n1Cc1ccccc1 [CBK261421] | 101.334
30 | O=C(C/C=N/OCc1ccccc1)c1sccc1Cl [CBK021611] | 69.0299
31 | Cc1nnc(NC(=O)c2ccc3c(c2)OCO3)s1 [CBK287358] | 94.4757
32 | Cc1ccc(-n2c(SCC(=O)c3ccc4c(c3)OCO4)nnc2-c2ccncc2)cc1 [CBK266132] | 161.662
33 | O=C(Nc1nc(-c2ccccc2)cs1)c1ccc(N2C(=O)CCC2=O)cc1 [CBK287333] | 116.049
34 | COc1ccc(Cl)cc1NC(=O)CN(c1cc(C(F)(F)F)ccc1Cl)S(C)(=O)=O [CBK264724] | 106.386
35 | O=c1[nH]c2cc(NCCO)c([N+](=O)[O-])cc2[nH]1 [CBK009794] | 71.7885
36 | CN(C)c1ccc(-c2cn3ccnc3c(NC3CC3)n2)cc1 [CBK037894] | 92.1206
37 | Cc1cc(C)[n+](-c2nccs2)c(C)c1 [CBK008782G] | 62.7488
38 | Cc1cccc(NC(=O)COc2ccccc2CNc2ccc(Br)cc2)c1 [CBK266534] | 103.846
39 | CN(C)CCN(C)C(=O)c1ccc(-c2cc3ccccc3o2)nc1NCc1cccnc1 [CBK076160] | 86.1895
40 | CCN1C(=O)/C(=C/c2cc(Br)ccc2OCc2cccc([N+](=O)[O-])c2)NC1=S [CBK265138] | 106.334
41 | CCCCCCC(C)n1c(-c2nonc2N)nc2ccccc21 (stereo not drawn) [CBK062648] | 95.4112
42 | COc1ccc(-c2nnc([C@H]3CCN(Cc4cccc(C#N)c4)C3)o2)cc1 [CBK289400] | 87.8886
43 | CC(C#N)(NC(=O)COc1ncnc2sc3c(c12)CCC3)C1CC1 (stereo not drawn) [CBK306333] | 33.0117
44 | Cc1cnc(CN2CCNC(=O)C2c2ccccc2C(F)(F)F)o1 (stereo not drawn) [CBK306431] | 63.6867
45 | Cc1cc(C)cc(OCc2nnc(SCC(=O)N3CCN(c4ccccc4)CC3)o2)c1 [CBK268012] | 102.431
46 | Cc1cc(COc2nccnc2N2CCCC2)no1 [CBK115755] | 54.6685
47 | O=C(Oc1cccc(-c2cnc3ccccc3n2)c1)c1cccc(S(=O)(=O)N2CCOCC2)c1 [CBK262096] | 79.8371
48 | COc1ccccc1CC(=O)N1CCCC(c2cc3ncccc3[nH]2)C1 (stereo not drawn) [CBK283417] | 100.972
49 | O/N=C/Nc1nccc(-c2cc(Cl)sc2Cl)n1 [CBK005934] | 44.7774
50 | COc1cc(OC)cc(C(=O)N2CCC3(CC2)CC(=O)c2cc(C)ccc2O3)c1 [CBK167804] | 89.1595
51 | Nc1ccc(-c2cn3ccnc3c(NCc3cccs3)n2)cc1 [CBK066564] | 139.792
